This note sets out measurements from PubChem BioAssay (NCI).

Where “and” joins values, the source holds several entries; their conditions need not be identical. Equal values may be shown once.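 Dose response: 5 concentrations. Exposure: 48 h. Format: 96-well plates. Endpoint: linear interpolation; highest concentration if not reached. The concentration for 50% growth inhibition is given as GI50. TGI: concentration producing complete growth inhibition.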 Square brackets hold non-standard residues; d marks the D form. Peptide text beside a SMILES is read from it. * marks the point of attachment. ξ: configuration not given here. ξW = NC(Cc1c[nH]c2ccccc12)C(=O)O; X26 = O=C(O)[C@H]1CCC[C@H]1N*; ξF = NC(Cc1ccccc1)C(=O)O; Boc = CC(C)(C)OC(=O)*; ξK = NCCCCC(N)C(=O)O; ξT = CC(O)C(N)C(=O)O; tBu = CC(C)(C)*

The assay deals with NCI-H322M lung. The experiment in a line: inhibition of tumour cell growth, NCI panel, 48 h.
Turning to `O=C(c1ccncc1)N1CCN(C2=NS(=O)(=O)c3ccccc3N2c2ccccc2)CC1`, the GI50 was 63.1 µM and the TGI was over 100 µM.

As for `CC(C)N(C(=O)C12C3C4C5C3C1(C#N)C5C42)C(C)C` (stereo unspecified), the TGI was over 100 µM.

In turn, `CNC(=O)OCc1cc2ccncc2c2c1[nH]c1ccccc12` gave a TGI of over 100 µM.

`CC(=O)OC(C#N)CC(C)(C)/[N+]([O-])=[N+](\[O-])C(C)(C)CC(C#N)OC(C)=O` (stereo unspecified) yielded a TGI of over 100 µM.

Regarding `COC(=O)c1cn(CCCCO)nn1`, the TGI was over 100 µM.

Compound `COc1cc2c3c(c1OCc1ccccc1)NCCC3NCC2` (stereo unspecified) gave a TGI of over 100 µM.

For `COc1ccc2cc(C(=O)/C=C/c3ccco3)ccc2c1`, the GI50 is 34.1 µM and the TGI was found to be 92.3 µM.

For `O=C(O)c1nc2cc(C(F)(F)F)ccc2[nH]c1=O`, the TGI is over 100 µM.

`C/C=C/C=C\C(=O)C1c2cccc(O)c2C(=O)c2c(O)cc(C)cc21` (stereo unspecified) displayed a TGI of 3.38 µM.

Consider `CC(=O)Nc1ccc(S(=O)(=O)c2ccc(NC(C)=O)cc2)cc1`, for which the GI50 was over 100 µM and the TGI was over 100 µM.

Regarding `O=C1C=C(NCCc2cc(Cl)c(O)c(Cl)c2)C(=O)c2[nH]cnc21`, the TGI is over 100 µM.

Turning to `C[N+]1(CCCC[N+]2(C)CCCCCCC2)CCCCCCC1`, the TGI is over 100 µM.

As to `NS(=O)(=O)c1ccc(N=Nc2nc3[nH]cnc(=S)c3[nH]2)cc1`, the TGI is over 100 µM.

Take `Cc1cn(CCCCOC(=O)NC(CCCNC(N)=O)C(=O)O)c(=O)[nH]c1=O` (stereo unspecified): the TGI is over 100 µM.

Compound `CSC1CC2C(CC1(C)SC)C2(C)C` (stereo unspecified) gave a TGI of over 100 µM.

`COC(=O)c1c2c(cc3c1CC1(C3)Cc3ccc4c(c3C1=O)CCC4)CCC2` (stereo unspecified) yielded a TGI of over 100 µM.

As to `O=C(O)C1CCCCC1C(=O)Nc1nc2ccccc2[nH]1` (stereo unspecified), the TGI is over 100 µM.

`CN(C)C(=O)C(F)(F)C(c1ccc(C(F)(F)F)cc1)C1C(=O)N(C)C(=O)N(C)C1=O` (stereo unspecified) yielded a TGI of over 100 µM.

Compound `CCN1C(=O)C(N=[N+]=[N-])(c2ccccc2)C(=O)c2ccccc21` (stereo unspecified) came in with a TGI of over 100 µM.

On to `CCCCCCCCCCCCCCCCNc1ccc2c(c1)OCCOCCOCCOCCO2`, for which the TGI is 15.3 µM.

The compound `Clc1ccc2c(Cl)nc(-c3ccccc3)nc2c1` had a TGI of over 100 µM.

`O=C(Nn1c(-c2ccccc2)nc2ccccc2c1=O)c1ccc(O)cc1` showed a TGI of over 100 µM.

As for `CCC(C)C(NC(=O)c1c2ccccc2nc2ccccc12)C(=O)O` (stereo unspecified), the TGI is over 100 µM.

As for `CC1=C2c3ccccc3N(S(=O)(=O)c3ccccc3)[C@H]2[C@H](C(=O)N2C3CC4CC[C@@]3(CS2(=O)=O)C4(C)C)CC1` (stereo partly specified), the TGI was over 100 µM.

Turning to `CCN(CC)c1nc(=O)c(C(=O)C(C)(C)C)c(C(C)(C)C)o1`, the TGI is over 100 µM.

As for `CCOP(=O)(OCC)/C(C#N)=C/c1cc(O)ccc1O`, the TGI was over 100 µM.

As for `O=C1C(Cl)=C(Nc2cccc(O)c2)C(=O)N1c1ccc(Cl)cc1Cl`, the GI50 is 23 µM and the TGI stood at 65.1 µM.

Turning to `CCCC(=O)Nc1ncnc2c1ncn2C1OC2COP(=O)(O)OC2C1OC(=O)CCC` (stereo unspecified), the GI50 is over 1000 µM and the TGI was over 1000 µM.

On to `CCNC(=O)c1ccc2c(c1)nc(-c1ccc(Cl)cc1)n2-c1cc(C(C)(C)C)[nH]n1`, for which the GI50 is 15.8 µM and the TGI was over 100 µM.

`C/C=C(\C)C(=O)OC1C2C(C)C(=O)OC2C(O)C(C)C2C=CC(=O)C21C` (stereo unspecified): the TGI is 26.5 µM.

Take `CC1=C(c2ccc(C)cc2)NC(=S)C(C)C(c2ccc(C)cc2)=N1` (stereo unspecified): the TGI was over 100 µM.

Take `CCc1cccc(CC)c1NC(=O)c1ccn2c1CCc1cnc(Nc3ccc(N4CCN(C)CC4)cc3OC)nc1-2`: the GI50 was 3.1 µM and the TGI was 15.2 µM.

`COc1ccc(OC)c(-c2cc(C(=O)O)c3cc4ccccc4cc3n2)c1` returned a TGI of over 100 µM.

Regarding `O=c1c2ccccc2n2n1Cc1ccccc1C2`, the TGI is over 100 µM.

`O=C1CSC(c2ccccc2[N+](=O)[O-])N1c1ccc(-n2c(-c3ccccc3)nc3ccccc3c2=O)cc1` (stereo unspecified) gave a TGI of over 100 µM.

`CC(C)NCCCCCNc1cc(O)cc2cccnc12`: the GI50 is over 56.4 µM and the TGI is over 100 µM.

Turning to `Cc1cccc2c1NC(=O)C2(c1ccc(O)cc1)c1ccc(O)cc1`, the GI50 is under 0.0195 µM and the TGI was 29.1 µM.

`Oc1c2c(c3c4c1N=CC=4CCN=3)C1(C=C(Br)C(O)C(Br)=C1)CCN2` (stereo unspecified) returned a TGI of 7.58 µM.

For `O=C(Nc1ccc(O)c(NS(=O)(=O)c2ccc(F)cc2)c1)c1ccc(-c2ccccc2)cc1`, the GI50 was 10.4 µM and the TGI turned out to be 25.8 µM.

`COc1cc(S(=O)(=O)Nc2ccc(-c3csc(/N=C\C=C\c4ccccc4)n3)cc2)ccc1Cl` registered a TGI of over 100 µM.

`N#Cc1nc(Nc2ccc(Cl)cc2)sc1N` registered a TGI of over 100 µM.

For the compound `CC(=O)O[C@H]1CC[C@@]2(C)C(=CC[C@H]3[C@@H]4C/C(=C\c5ccncc5)[C@H](OC(C)=O)[C@@]4(C)CC[C@@H]32)C1`, the TGI was found to be 35.7 µM.

The compound `CCOC1=C2C(C)(CCC3[C@@]4(C)C=CC(=O)C(C)(C)C4CC(O)[C@@]23C)C(c2ccoc2)C1=O` (stereo partly specified) returned a TGI of over 100 µM.

Turning to `C[CH2][Sn]([Cl])([CH2]C)[CH2]C`, the GI50 is 2.21 µM and the TGI was 13.9 µM.

Take `O=C(Nc1ccc(Cl)cc1F)c1cc(Cl)ccc1O`: the GI50 was 0.329 µM.

The compound `CN(C)C=Nc1c(Br)cc(Br)c2nonc12` had a TGI of over 100 µM.

`COC1CC(n2ccc(=O)[nH]c2=O)OC1CO` (stereo unspecified): the TGI is over 100 µM.

In turn, `N#CC(C#N)=Cc1ccc(Oc2ccccc2)cc1` gave a TGI of over 100 µM.

With `CCCCC/C=C\C/C=C/CCCCCCCCNC(=O)Nc1ccc([N+](=O)[O-])cc1`, the GI50 was 49.1 µM and the TGI was over 100 µM.

For `NC(=O)OCC(COc1ccc(Cl)cc1)OC(=O)c1cc([N+](=O)[O-])cc([N+](=O)[O-])c1` (stereo unspecified), the TGI was over 100 µM.

Consider `O=C(/C=C/c1ccc(O)cc1)c1cc(O)cc(O)c1`, for which the TGI came out at 31.4 µM.

`Nc1ccc(-c2nc3ccccc3s2)cc1F` yielded a TGI of over 100 µM.

`Nc1ccn(CC(CO)CC(c2ccccc2)P(=O)(O)O)c(=O)n1` (stereo unspecified): the TGI was over 100 µM.

For `CN1CCc2cc(O)c3cc2C1Cc1ccc(cc1)Oc1cc(ccc1O)CC1c2c(cc4c(c2O3)OCO4)CCN1C` (stereo unspecified), the TGI was over 100 µM.

For `CCOc1ccc(N=Nc2c(-c3ccccc3)nn(C(=O)CC(=O)Nc3cccc(C)c3)c2-c2ccccc2)cc1`, the TGI was over 100 µM.

For `COc1ccc(C(=O)C(CC2C(=O)CC(C)(C)C(C(=O)C(=O)Nc3c(C)cccc3C)C2=O)c2ccc(OC)cc2)cc1` (stereo unspecified), the TGI is over 100 µM.

In the case of `Cc1ccc(S(=O)(=O)NC(=O)C#CCOC2CCCCO2)cc1` (stereo unspecified), the TGI is over 100 µM.

`COc1cc2c(cc1OC)C1(c3ccccc3)ON=C(c3ccccc3)N1CS2` (stereo unspecified): the TGI is over 100 µM.

For the compound `C=CCCC(O)c1ccc(CCCCCCCCCCC)o1` (stereo unspecified), the GI50 is 18.7 µM and the TGI was 36.9 µM.

For `N=C(N)c1ccc(-c2ccc(-c3ccc(Cl)c(Cl)c3)o2)nc1`, the GI50 is 1.72 µM and the TGI is 3.24 µM.

Compound `CCN(CC)CCNc1ccc2ncn3c4c(OC)ccc(=O)c4c(O)c1c23` yielded a TGI of over 100 µM.

With `C=CCN(c1cc(OCc2ccccc2)c2c(c1)c(C)cn2S(=O)(=O)c1ccccc1)S(C)(=O)=O`, the TGI was over 100 µM.

For the compound `COc1cc(/C=N/Nc2ncnc3c2cnn3Cc2ccccc2)ccc1O`, the GI50 was 15.6 µM and the TGI was over 25 µM.

As for `O=C1CCCC(=O)C1C(=O)c1ccc(C(F)(F)F)cc1[N+](=O)[O-]`, the GI50 is over 100 µM and the TGI is over 100 µM.

The compound `NCC(=O)NC(CO)C(=O)O` (stereo unspecified) returned a TGI of over 100 µM.

`CCN(CC)C(=O)N[C@@H](Cc1ccccc1)C(=O)NC`: the TGI was over 100 µM.

As for `Cc1cccc(Nc2nc(NNC(=O)Cc3ccccc3)nc(NNC(=O)c3ccncc3)n2)c1`, the TGI was over 10 µM.

For the compound `COC(=O)C(CCSc1ccccc1)C(=O)OC`, the TGI is over 100 µM.

Compound `COC(=O)CCSC1=CC(=O)c2nc3ccccc3c3ccnc1c23` returned a TGI of over 57 µM.

Turning to `C/C=C1\C[C@@H]2C(OC)Nc3cc(O)c(OC)cc3C(=O)N2C1` (stereo partly specified), the GI50 is 0.0301 µM; the TGI was 0.152 µM and 0.0762 µM.

On to `Cc1cc(O)c(O)c(Oc2cc(C)cc(O)c2O)c1`, for which the TGI was over 100 µM.

For `COCO[C@@H]1CC2C=Nc3cc(OCc4ccccc4)c(OC)cc3C(=O)N2C1` (stereo partly specified), the GI50 was 1.32 µM and the TGI came to 7.28 µM.

Consider `Cc1[nH]c2ccccc2c1C1=CC(=O)C=CC1=O`, for which the GI50 is 22.8 µM and the TGI was determined as 60.8 µM.

As for `COc1cc(C2C(C(=O)OCc3ccccc3)=C(C)NC(C)=C2C(=O)OCc2ccccc2)cc(OC)c1OC`, the GI50 was over 100 µM and the TGI was over 100 µM.

The compound `CC(OC(C)(C)C)C(NC(=O)C(CCCCNC(=O)OC(C)(C)C)NC(=O)C(Cc1c[nH]c2ccccc12)NC(=O)C(N)Cc1ccccc1)C(=O)NC(Cc1ccccc1)C(=O)N[C@@H]1CCC[C@@H]1C(=O)O` (stereo partly specified) (H-[ξF][ξW][ξK](Boc)[ξT](tBu)[ξF]-X26) came in with a TGI of over 100 µM.

The compound `NC(N)=NCCCC(NCc1c2ccccc2[n+]([O-])c2ccccc12)C(=O)O` (stereo unspecified) registered a TGI of over 100 µM.

In the case of `COc1cc(C(=O)Nc2cc(O)c(C/C=C(\C)CCC=C(C)C)c(O)c2)cc2c1O[C@]1(C)CC[C@@H](O)C(C)(C)[C@H]1C2`, the GI50 is 5.83 µM and 3.11 µM; the TGI was determined as 17.1 µM.

For the compound `Cc1ccc(C)c(N2C(=O)C(=O)c3c(C)ccc(C)c32)c1`, the TGI is over 100 µM.

Compound `Cc1ccc(C(O)/C(=N/N)c2nc3ccc([N+](=O)[O-])cc3[nH]c2=O)cc1` (stereo unspecified) came in with a TGI of over 100 µM.

For the compound `CS(=O)(=O)c1ccc(-c2[nH]c3ccc(F)cc3c2/C=N/NC(N)=S)cc1`, the GI50 was 13 µM and the TGI was over 100 µM.

For the compound `O=[N+]([O-])c1ccc(NN=C2c3ccccc3Cc3ccccc32)c([N+](=O)[O-])c1`, the TGI is over 100 µM.

In the case of `O=C1c2ccccc2CCC1(Br)Br`, the GI50 was 14.6 µM and the TGI was determined as 28.8 µM.

Consider `COc1cccc2cc(-c3nc(C4CCC(C(=O)O)CC4)n4ncnc(N)c34)[nH]c12` (stereo unspecified), for which the GI50 is 0.156 µM and 0.345 µM; the TGI was 6.38 µM and > 10 µM.

In the case of `N#C/C(=C\c1ccc([N+](=O)[O-])s1)c1nc2cc(Br)ccc2s1`, the GI50 was over 100 µM and the TGI was over 100 µM.

Take `O=C(OC(CNc1c(C(=O)c2ccccc2)c(=O)n(Cc2ccccc2)c(=O)n1Cc1ccccc1)CN1CCCCC1)c1ccccc1` (stereo unspecified): the GI50 was 21.3 µM and the TGI stood at 55.4 µM.
